# In PubChem BioAssay AID662 (National Center for Advancing Translational Sciences (NCATS), 2007):
# The campaign covered roughly 71,000 compounds. About 1,800 (2.5%) were called active. The inconclusive results got no clear call from the source; some entries with a clear call stand among them for comparison. The call rests on the fitted dose curve; in most records, active means well fitted activation curve with a large enough effect in the signal ratio, with a control signal flat (not every such curve was filed as active); inconclusive means small, poorly fitted or top-dose-only effect, or effect the other way, or a change in a side signal; inactive means flat fitted curve, though single readings scatter; the % refers to the signal ratio. Potencies beside an inconclusive call are fits to weak or partial responses and may not hold up.
# Assay: Cell signaling CRE-BLA (Fsk stim); on activity change, negative = inhibition: % of control where 0% means no effect
# Conditions: CHO CRE-bla reporter (cAMP response element driving beta-lactamase), forskolin EC10, beta-lactamase ratio
# In short: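 Beta-lactamase reporter under a cAMP responsive element in CHO cells; compounds tested in titration series against EC10 NKH 477, 3 h at 37 °C. Read-out: CCF4 FRET ratio 460nm/530nm (excitation 405nm) giving %Activity, fitted to AC50.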
# [1] = activity change, negative = inhibition: at 38.2 µM (top of the series) unless noted
# Potency means the concentration at half of the fitted maximal effect; tags describe the fitted curve by direction and shape.
smiles,measurement,setting,value
COc1cccc(NC(=O)N2CCN(c3cccc(C)c3C)CC2)c1,"activity change, negative = inhibition",[1],inconclusive: -0.981%
COc1ccc(C2OC(=O)CC2C(=O)N2CCN(c3cc(Cl)ccc3C)CC2)cc1OC (centres undefined),Potency,[1],"inconclusive: 15.8 µM [rising, single point]"
Cc1nn(-c2ccccc2)c2sc(C(=O)c3c(N)n(C)c(=O)n(C)c3=O)cc12,Potency,[1],"inconclusive: 12.6 µM [rising, partial curve]"
COC(=O)C1=CN(CCCN2CCCC2=O)C=C(C(=O)OC)C1c1cccs1,Potency,[1],"inconclusive: 15.8 µM [rising, single point]"
COCCN(CC(=O)Nc1ccc(F)cc1)S(=O)(=O)c1ccc(S(=O)(=O)N2CCCC2)cc1,"activity change, negative = inhibition",[1],inconclusive: 10.3%
CC(C)c1ccc2c(c1)c(SC(C)(C)C)c(CC(C)(C)C(=O)O)n2Cc1ccc(Cl)cc1,Potency,[1],"inconclusive: 31.6 µM [rising, single point]"
same,"activity change, negative = inhibition",[1],inconclusive: -9.8% [cytotoxic]
COc1ccc(CCC(=O)N2CC(C)OC(C)C2)cc1 (centres undefined),Potency,[1],"inconclusive: 0.00398 µM [rising, full curve, poor fit]"
COc1ccc(CCNC(=O)C2CCN(S(=O)(=O)c3cccc4nsnc34)CC2)cc1OC,Potency,[1],"inconclusive: 0.251 µM [rising, full curve]"
CCOC(=O)C1CCCN(c2ncnc3c2[nH]c2cccc(OC)c23)C1 (centres undefined),Potency,[1],"inconclusive: 10 µM [rising, partial curve]"
C[C@@H](CCc1ccccc1)NC[C@H](O)c1ccc(O)c(C(N)=O)c1,"activity change, negative = inhibition",[1],inactive
Cc1ccc2nc(SCC(=O)N3CCCC3)[nH]c2c1,"activity change, negative = inhibition",[1],inactive
COC(=O)[C@@H]1C[C@H]1[C@@H](NC(=O)c1ccccc1)c1ccccc1,"activity change, negative = inhibition",[1],inactive
CC1CCCCN1C(=O)CSc1nc2ccsc2c(=O)n1Cc1ccccn1 (centres undefined),"activity change, negative = inhibition",[1],inconclusive: 16.9%
COc1ccc(S(=O)(=O)Nc2cc(OC)c(NC(=O)c3ccco3)cc2OC)cc1,Potency,[1],"inconclusive: 6.31 µM [rising, partial curve]"
Cc1nn(-c2ccccc2)c2[nH]c(=O)c(CNc3ccc4c(c3)OCCO4)cc12,Potency,[1],"inconclusive: 5.01 µM [falling, single point]"
CN(C)c1ncc2nc(-c3ccccc3)c(=O)n(CCC#N)c2n1,Potency,[1],active: 2.51 µM
COc1cc(NS(=O)(=O)c2ccc(NC(=O)C3CCCO3)cc2)nc(OC)n1 (centres undefined),"activity change, negative = inhibition",[1],inconclusive: 4.69%
Cc1ccc(C)n1-n1c(C)nc2sc(-c3ccccc3)cc2c1=O,Potency,[1],"inconclusive: 0.02 µM [rising, full curve, poor fit]"
Cc1ccccc1OCC(=O)Nc1ccccc1N1CCCCC1,Potency,[1],"inconclusive: 2 µM [rising, full curve, poor fit]"
NC(=O)C1CCN(c2ncnc3c(-c4ccccc4)nsc23)CC1,"activity change, negative = inhibition",[1],inactive
COc1ccc2[nH]cc(CCNc3ncncc3-c3ccccc3CN(C)C)c2c1,"activity change, negative = inhibition",[1],inactive
COc1ccc(OC)c(C2=NOC(C(=O)Nc3cccc(C(C)=O)c3)C2)c1 (centres undefined),"activity change, negative = inhibition",[1],inconclusive: 35.7%
CN(Cc1ccco1)c1ncnc2ccc(-c3ccccc3C(F)(F)F)cc12,Potency,[1],"inconclusive: 10 µM [rising, single point]"
C=CCSc1n[nH]c(-c2ccc(OCCC)cc2)n1,"activity change, negative = inhibition",[1],inactive
Cc1nn(-c2nc3ccccc3s2)c(C)c1Oc1ccccc1O,"activity change, negative = inhibition",[1],inconclusive: -8.17% [cytotoxic]
CCOC(=O)c1cnc(-n2nc(C)cc2C)nc1NC,"activity change, negative = inhibition",[1],inactive
Cc1cc(C)n2nc(NCc3cccc(Br)c3)nc2n1,Potency,[1],"inconclusive: 12.6 µM [rising, single point]"
Cc1sc2ncnc(-n3cnc4ccccc43)c2c1C,Potency,[1],"inconclusive: 3.98 µM [falling, single point]"
Cc1ccc(S(=O)(=O)Nc2cc(NC(=O)CN3CCOCC3)ccc2Cl)cc1,"activity change, negative = inhibition",[1],inactive
Cc1onc(-c2c(F)cccc2Cl)c1C(=O)Nc1cccc2nsnc12,Potency,[1],"inconclusive: 25.1 µM [rising, single point]"
CS(=O)(=O)Nc1cccc(-c2cncnc2NCc2cccs2)c1,"activity change, negative = inhibition",[1],inactive
O=S1(=O)N=C(N2CCN(Cc3ccc4c(c3)OCO4)CC2)c2ccccc21,"activity change, negative = inhibition",[1],inconclusive: -5.49%
N/N=C1/c2ccccc2N[C@H]1OC(=O)Nc1cccc(Cl)c1,"activity change, negative = inhibition",[1],inactive: 2.07% [at 7.6 µM]
N#Cc1nc(COc2ccccc2)oc1NCCCn1ccnc1,"activity change, negative = inhibition",[1],inconclusive: -2.58%
COc1ccc(Cn2c3nc4ccccc4nc3c3c(=O)n(Cc4ccco4)cnc32)cc1,Potency,[1],active: 12.6 µM
CCOC(=O)c1cc(S(=O)(=O)N2CCN(C(=O)OCC)CC2)cn1C,Potency,[1],"inconclusive: 25.1 µM [rising, single point]"
CCCN(CCC)C(=O)C1CCN(c2cc(C)nc3c(-c4ccc(OC)c(OC)c4)c(C)nn23)CC1,Potency,[1],"inconclusive: 10 µM [rising, partial curve]"
CC(C)Cc1nc2oc3c(NCc4cccnc4)ncnc3c2c2c1CCC2,Potency,[1],active: 2 µM
Cc1nnc(NC(=O)CCC(=O)NCc2ccco2)s1,"activity change, negative = inhibition",[1],inactive
O=S(=O)(c1ccccc1)N1CCC[C@@]2(CCN(Cc3cc(C(F)(F)F)cc(C(F)(F)F)c3)C2)C1,"activity change, negative = inhibition",[1],inactive
COc1cccc(Nc2ncc3nc(C)c(=O)n(C4CC4)c3n2)c1,Potency,[1],active: 5.01 µM
O=C(Nc1ccccc1C(F)(F)F)c1cc(-c2ccc(O)cc2)on1,Potency,[1],"inconclusive: 0.0501 µM [falling, full curve, poor fit]"
COc1cc(OC)c(NC(=O)c2c(-c3ccccc3)noc2C)cc1Cl,Potency,[1],"inconclusive: 5.01 µM [rising, partial curve]"
COc1ccccc1NC(=O)Cn1nnc(-c2ccccc2NC(=O)c2cccs2)n1,Potency,[1],"inconclusive: 2.51 µM [rising, full curve, poor fit]"
O=C(Nc1nc2c(s1)CCCC2)c1ccc(Br)o1,"activity change, negative = inhibition",[1],inconclusive: 4.71% [at 7.6 µM]
CC(=O)N(CN1C(=O)c2ccccc2C1=O)c1ccccc1,"activity change, negative = inhibition",[1],inactive
Cc1nnc(SCC(=O)Nn2cnnc2)s1,"activity change, negative = inhibition",[1],inconclusive: 6.18%
COC(=O)c1ccc(NC(=O)C2CCCN(S(=O)(=O)c3cnc[nH]3)C2)cc1 (centres undefined),"activity change, negative = inhibition",[1],inactive
Cc1nc(C)c(C(=O)Nc2ccc(C)c(F)c2)o1,"activity change, negative = inhibition",[1],inconclusive: -13.7%
CCOC(=O)c1cn(CC(=O)Nc2ccc(CC)cc2)nn1,"activity change, negative = inhibition",[1],inconclusive: 0.0556%
CCNc1ncc2nc(C)c(=O)n(-c3ccc(OC)cc3)c2n1,"activity change, negative = inhibition",[1],inconclusive: 26.6%
O=C(CN1C(=O)CCC1=O)Nc1nc(-c2nc3ccccc3s2)cs1,"activity change, negative = inhibition",[1],inactive
O=C(Nc1ccccc1C(=O)N1CCCCCC1)c1cccc(S(=O)(=O)N2CCOCC2)c1,"activity change, negative = inhibition",[1],inconclusive: 8.85%
Cn1c(=O)[nH]c(=O)c2c1nc(Br)n2CCCCSc1nc2ccccc2o1,Potency,[1],active: 2.51 µM
O=C1CC[C@](CCc2nc3ccccc3[nH]2)(c2ccccc2)C(=O)N1,"activity change, negative = inhibition",[1],inactive: -10.8% [at 7.6 µM]
CN(CCNC(=O)CN1CCN(Cc2ccccc2Cl)C1=O)Cc1ccccc1,Potency,[1],"inconclusive: 31.6 µM [falling, single point]"
Clc1ccc(N2CCN(Cc3c[nH]c4ncccc34)CC2)cc1,"activity change, negative = inhibition",[1],inconclusive: -11.4%
same,"activity change, negative = inhibition",at 38.2 µM (top of the series),inactive: -9.46%
CCCCn1c(NC(=O)c2ccccc2Cl)c(C#N)c2nc3ccccc3nc21,Potency,[1],"inconclusive: 12.6 µM [rising, partial curve]"
c1ccc(-c2nc3cc(Cc4ccc5oc(-c6ccccn6)nc5c4)ccc3o2)nc1,Potency,[1],"inconclusive: 10 µM [rising, single point]"
CSc1nc(C)c2cc(C)oc2n1,"activity change, negative = inhibition",[1],inactive
CCCCn1ccnc1C(=O)c1cccc(S(=O)(=O)N2c3ccccc3CC2C)c1 (centres undefined),"activity change, negative = inhibition",[1],inconclusive: 4.25%
O=C(CSc1nnc(Cc2ccccc2)o1)Nc1ccc(Br)cn1,"activity change, negative = inhibition",[1],inactive
Cc1cccc(N(C)C(=O)c2cc3cc4ccc(C)cc4nc3o2)c1,Potency,[1],"inconclusive: 0.1 µM [falling, partial curve, poor fit]"
CCOc1ccc(-n2cnnn2)cc1S(=O)(=O)NCc1ccccc1,"activity change, negative = inhibition",[1],inconclusive: 27.2%
Cc1ccc(C)c(Cn2c(=O)c3c(nc4n3CCN4Cc3ccco3)n(C)c2=O)c1,Potency,[1],"inconclusive: 10 µM [rising, partial curve]"
CC(=O)N(Cc1cccnc1)Cc1cc2ccccc2[nH]c1=O,Potency,[1],"inconclusive: 20 µM [rising, single point]"
Cc1ccc(S(=O)(=O)N2CCC(C(=O)N[C@@H](Cc3ccccc3)C(=O)O)CC2)cc1,"activity change, negative = inhibition",[1],inconclusive: -26.9%
CC(=O)NCCNc1ncnc2ccc(-c3ccccc3C)cc12,Potency,[1],"inconclusive: 10 µM [rising, partial curve]"
COCCn1nnnc1C(c1ccc(OC)cc1OC)N1CCN(c2ccccc2F)CC1 (centres undefined),"activity change, negative = inhibition",[1],inactive
CCN(CC)S(=O)(=O)c1ccc(NCc2ccccc2)nc1,Potency,[1],"inconclusive: 3.98 µM [rising, full curve, poor fit]"
Cc1cc(C(=O)N2CCN(C(=O)C3CCCO3)CC2)no1 (centres undefined),"activity change, negative = inhibition",[1],inactive
CN(C)c1ccc(C(=C2C=CC(=[N+](C)C)C=C2)c2ccc(N(C)C)cc2)cc1,Potency,[1],"inconclusive: 0.158 µM [rising, full curve, poor fit]"
O=C(Cn1cnc2ccccc2c1=O)c1c[nH]c2ccccc12,"activity change, negative = inhibition",[1],inconclusive: 23%
COc1cccc(C(=O)Nc2ccc(N(C)C)cc2)c1OC,"activity change, negative = inhibition",[1],inconclusive: 14.7%
Clc1ccc(-c2ccc(-c3nn4c(-c5ccco5)nnc4s3)o2)cc1,Potency,[1],"inconclusive: 12.6 µM [rising, single point]"
O=C(CSc1nnc2c(Cl)cc(C(F)(F)F)cn12)Nc1ccc2c(c1)OCO2,"activity change, negative = inhibition",[1],inconclusive: 23.8%
N[C@H](C(=O)N[C@@H]1C(=O)N2C(C(=O)O)=C(Cl)CS[C@@H]12)c1ccccc1,"activity change, negative = inhibition",[1],inactive
